Data on one molecule can be found in patent US20250019440A1 (Zymeworks, published 2025).

One test has as its target Human CD3 (recombinant) (human). The test is described as follows: SPR, CD3 amine-coupled, variant as analyte, 1:1 model. For orientation: Surface plasmon resonance follows binding to a sensor surface in real time, without labels.
The target of test [1] is T1, Human PD-L1 (human, UniProt Q9NZQ7 part only).
T1 construct: Amine-coupled to a CM5 chip for SPR; also called recombinant human PD-L1
The test can be described thus: SPR, PD-L1 amine-coupled, variant as analyte, 1:1 model; third of three variants in the merged cell (G1 4-1 PD-1).

The next test concerns the target T2, Cynomolgus monkey PD-L1 (cynomolgus monkey, UniProt G7PSE7 19-239).
T2 construct: Amine-coupled to a CM5 chip for SPR; also called recombinant cynomolgus monkey PD-L1
The test is described as follows: SPR, PD-L1 amine-coupled, variant as analyte, 1:1 model.

Test [2] addresses T1, Human PD-L1. Described as above.
For the next test, the target named is T3, Mouse PD-L1 (mouse, UniProt Q9EP73 part only, limits assumed).
T3 construct: Amine-coupled to a CM5 chip for SPR; also called recombinant mouse PD-L1
The description is as above.

T1 sequence (Q9NZQ7 19-239 limits assumed): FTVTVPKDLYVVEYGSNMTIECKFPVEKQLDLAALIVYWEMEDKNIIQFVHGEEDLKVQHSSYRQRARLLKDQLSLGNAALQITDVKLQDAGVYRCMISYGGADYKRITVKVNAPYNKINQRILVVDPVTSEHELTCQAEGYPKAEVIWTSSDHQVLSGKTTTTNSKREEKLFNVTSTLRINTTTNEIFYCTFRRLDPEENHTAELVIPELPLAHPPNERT
Human CD3 (recombinant), sequence (chain, as listed by the source): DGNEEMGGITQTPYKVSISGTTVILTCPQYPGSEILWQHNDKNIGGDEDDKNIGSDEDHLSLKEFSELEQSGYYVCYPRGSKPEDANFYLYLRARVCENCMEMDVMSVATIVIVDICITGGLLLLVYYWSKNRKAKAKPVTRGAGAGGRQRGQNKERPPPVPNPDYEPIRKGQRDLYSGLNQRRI
Cynomolgus monkey PD-L1, sequence (G7PSE7 entry or part of it): as the sequence (Q9NZQ7 19-239 limits assumed) above, with A33T, A34S, S62N, R68Q, Q82R, F173L, T185A, T192I, H215L counted along it
Mouse PD-L1, sequence (Q9EP73 19-238 limits assumed): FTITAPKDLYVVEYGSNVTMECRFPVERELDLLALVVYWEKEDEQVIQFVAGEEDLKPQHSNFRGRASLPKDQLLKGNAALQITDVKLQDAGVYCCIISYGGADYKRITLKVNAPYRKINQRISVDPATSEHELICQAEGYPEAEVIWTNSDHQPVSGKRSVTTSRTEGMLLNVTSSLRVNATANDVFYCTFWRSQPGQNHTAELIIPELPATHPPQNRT

B1: v38733 (other)
heavy 1: NPPTFSPALLVVTEGDNATFTCSFSNTSESFRLVWHRESPGYETDTLASFPEDRSTPLPDARFRVTQLPNGRDFHMSVVRARRNDSGTYVCGAIAFHPVIQIKESLRAELRVTEGGGGSGQVQLVESGGGLVQPGGSLRLSCSVSGIDLSSNPMIWVRQAPGKGLQYIGIIDTDGSTYYADWAKGRFTISKDSTTVYLQINSPRAEDTAVYYCARRLHGSSNGYYDDLWGQGTLVTVSSASTKGPSVFPLAPSSKSTSGGTAALGCLVKDYFPEPVTVSWNSGALTSGVHTFPAVLQSSGLYSLSSVVTVPSSSLGTQTYICNVNHKPSNTKVDKKVEPKSCDKTHTCPPCPAPEAAGGPSVFLFPPKPKDTLMISRTPEVTCVVVSVSHEDPEVKFNWYVDGVEVHNAKTKPREEQYNSTYRVVSVLTVLHQDWLNGKEYKCKVSNKALPAPIEKTISKAKGQPREPQVYVLPPSRDELTKNQVSLLCLVKGFYPSDIAVEWESNGQPENNYLTWPPVLDSDGSFFLYSKLTVDKSRWQQGNVFSCSVMHEALHNHYTQKSLSLSPG
light: DGQMTQSPSSVSASVGDRVTITCQASQSIYSYLSWYQQKPGQRPKLLIYKASTLASGVPSRFSGSGSGTDFTLTISSVQPEDFATYYCQQGYTVTNVDKNTFGGGTKVEIKRTVAAPSVFIFPPSDEQLKSGTASVVCLLNNFYPREAKVQWKVDNALQSGNSQESVTEQDSKDSTYSLSSTLTLSKADYEKHKVYACEVTHQGLSSPVTKSFNRGEC
heavy 2: EVQLVESGGGLVQPGGSLRLSCAASGVTFNYYGMSWIRQAPGKGLEWVASITSSGGRIYYPDSVKGRFTISRENTQKTLYLQMNSLRAEDTAVYYCTLDGRDGWVAYWGQGTLVTVSSGGGGSGGGGSGGGGSGGGGSNFMLTQPHSVSESPGKTVTISCKRNTGNIGSNYVNWYQQHEGSSPTTIIYRNDKRPDGVSDRFSGSIDRSSKSASLTISNLKTEDEADYFCQSYSSGFIFGGGTKLTVLA[human IgG1 Fc with changes not shown]
A word on the Kd: it is the constant that tells how readily two partners part at equilibrium. As to B1, the Kd with Human CD3 (recombinant) came out at 26 nM; with Human PD-L1 [1], 85 nM; in the test with Cynomolgus monkey PD-L1 it was 23 nM; with Human PD-L1 [2], 75 nM; with Mouse PD-L1 it was 19 nM.
